The chains are these.
B1: CPEB3 Ribozyme (parent)
chain: UAACAGGGGGCCACAGCAGAAGCGUUCACGUCGCAGCCCCUGUCAGAUUCUGGUGAAUCUGCGAAUUCUGCUGUAUAUCUC

Read counts are not given, so values of variants with three or more changes are uncertain.

In this data set the parent is B1. Put plainly: self-cleavage, relative activity (ratio to wild type); higher = more cleavage; in vitro, sequencing. In a few lines:
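Relative activity compares each variant's cleaved/total read fraction with that of the unmutated ribozyme. To get these fractions, barcoded CPEB3 ribozyme libraries from rounds of error-prone PCR were transcribed with T7 RNA polymerase for 5 hours at 37°C and then given 15 min of DNase I treatment before EDTA was added. The RNAs were reverse transcribed with template switching and sequenced on Illumina, and DNA sequencing linked barcodes to variants. A minimum of 5 reads applied, and three batches were averaged.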
Turning to A2G U49C A65G U66C, the self-cleavage amounted to 0.17. On to A2G U54G G73A A77G, for which the self-cleavage was 0.97. To A2G G10A C34A U41A U78C belongs 0.04; to A2G U26C U60C, 0.33. Consider A2G U26C U60A, for which the self-cleavage is 0.54. To A2G U31A C50G A77U belongs 0.14.

Take A2G U41C U67A U69A: the self-cleavage came to 0.28. To A2G U26C U48C U58C belongs 0.06. As for A2G G36A A45U U74C, the self-cleavage came out at 0.07. A2G G53U U72A U80C: the self-cleavage came to 1.17. In the case of A2G U48C A57G A77G, the self-cleavage worked out at 0.79. To A2G U43A A47C belongs 0.43; to A2G U25C A28U U48C U54C U80C, 0.13; to A2G G16A C40G U69A, 0.17. To A2G U31C U51C U66C U72C U80C belongs 0.14; to A2G G63U U78C, 0.61. Regarding A2G U26C A64C C68A, the self-cleavage stood at 0.1. To A2G U41C U78C belongs 0.88; to A2G G30A U67C, 0.11; to A2G G16A U60C U72C, 0.15. Consider A2G U67A U69A G73U, for which the self-cleavage was 0.21.

As for A2G U31A C44U U49C, the self-cleavage amounted to 0.06. To A2G U43C U51C U78A belongs 0.78; to A2G U26C A77G, 0.25. To A2G U31A U43C U78A belongs 0.09. Turning to A2G U25A U41C A64G, the self-cleavage came to 0.22. In the case of A2G G9U U26A U49C, the self-cleavage turned out to be 0.08. To A2G U26C C29U U49C belongs 0.16. Turning to A2G U26C A35G U78C, the self-cleavage worked out at 0.94. To A2G U48C A57C belongs 0.69; to A2G U31G U43C A45G U48A U74C, 0.24; to A2G U25C U31C A65G, 0.06. To A2G U25C U43G G53A C81A belongs 0.58. Turning to A2G U43C A47G A64U A75U U78C, the self-cleavage is 0.18. A2G G16A U25A C34G A35G A57G: the self-cleavage turned out to be 0.15. To A2G U72A U80C belongs 1.01; to A2G U41C A47G U51C U80C, 0.71.

As for A2G G33U A56U U67C, the self-cleavage was 0.15. With A2G U25A C34U A57G U69C, the self-cleavage stood at 0.07. To A2G U25C C40A belongs 0.19; to A2G U54C U58C U67C, 0.22; to A2G G10A A18U U43C A64U U74A, 0.07. On to A2G U41C A45U U72G, for which the self-cleavage stood at 0.2. To A2G G16C C23U U25C U66C U72A belongs 0.13; to A2G U25C U58C G63A, 0.07. In the case of A2U A3G A15U C23U U25C U26G G33A, the self-cleavage came to 0.08. To A2G U41A A45G belongs 0.55; to A2G U72C U76C, 0.76. As to A2G G22A A47U A64G U80C, the self-cleavage amounted to 0.31. As for A2G U25C A45C A56G U67C, the self-cleavage stood at 0.1. To A2G U31C A35G U43C A45U belongs 0.32; to A2G U25C G30A, 0.1. To A2G G16A C40G A64G U69A belongs 0.24; to A2G U58C A64U U74C, 0.15.

Consider A2G U26A U69A C71A, for which the self-cleavage stood at 0.08. A2G U31C C59A: the self-cleavage was 0.26. To A2G U48C U51A U58C G73C belongs 0.08; to A2G G10A G24A A56U A64G, 0.05.

With A2G U26C A35G U41A U43C U74A, the self-cleavage turned out to be 0.09.

As to A2G G10A U31C U41A U74G U78C, the self-cleavage stood at 0.04. To A2G G22A U25C A28U U41C U80C belongs 0.05. To A2G G22A G63A belongs 0.18; to A2G U26C G30A C34A A75C, 0.31; to A2G U26C U48A, 0.33.

On to A2G U60A U72A, for which the self-cleavage was 0.15. To A2G U41A A56G U58A U78A belongs 0.07; to A2G G19A C29U U43C A45U, 0.04; to A2G U48C G55C, 0.05. To A2U A3C A18U U41A U69A belongs 0.23. Take A2G U31G U58C G70U U72C: the self-cleavage came to 0.05.

As for A2G U26C A28U G33U U41C U60A, the self-cleavage was determined as 0.06. To A2G U43A A57U U69C U72A belongs 0.13; to A2G U26A U41A, 0.06.

With A2G U51A G63A, the self-cleavage came out at 0.54. To A2G G33A A47G A64G belongs 0.06; to A2G U43A U72A, 0.77. To A2G U26A A45U C50G U58A U72A U78C belongs 0.05; to A2G U26C C79U, 0.68.

For A2G U25C U26C U72A, the self-cleavage was 0.07.

In the case of A2G U31C U54A, the self-cleavage is 0.3. A2G U25C U60A: the self-cleavage is 0.2.

As for A2G U41C A45U, the self-cleavage came to 0.27.

Regarding A2G G24A U31C U51A U67A U69A, the self-cleavage came to 0.31. To A2G U48A A56U A57G U60C belongs 0.11.

Source of the values: the RNAGym collection of RNA variant scans (doi:10.1093/nar/gkz1192).
